Source: the supplement of paper PMC4967469
pIC50: −log10 of the molar value. Lines with a small IC50 respond at low doses; a limit (>, <) means that the fit lies beyond the doses tested. AUC, from the same fit, is the share of area under the viability curve across the 256-fold dose range; values near 1 show little effect. For some assays here: An inferred top dose was calculated from the reported fits. For some assays here: Where an entry number is given, a second screen of the drug exists; the two often differ.

How the values were obtained:
Test in all cases: Viability of human cancer cell lines after 72 h of drug (GDSC screen)
SNX-2112 = compound: CC1(C)CC(=O)c2c(C(F)(F)F)nn(-c3ccc(C(N)=O)c(N[C@H]4CC[C@H](O)CC4)c3)c2C1 [SNX-2112]; conditions: top dose 2.56 µM
Description: (§1)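 Human cancer cell lines in 384-well plates, medium with 10% serum, drug for 72 h over a 256-fold dose range (nine 2-fold or five 4-fold steps up to the top dose). Adherent lines were fixed and stained with the nucleic acid dye Syto60, suspension lines read with resazurin; signal relative to control wells, capped at 0 and 100%. One two-parameter sigmoid per drug and line, fitted in a mixed model over all curves with the slope shared within a line.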

XMD13-2 = compound: O=C(NC1CC1)c1cccc(-c2ccc3c(NC(=O)C4CC4)n[nH]c3c2)c1 [XMD13-2]; conditions: top dose 10.24 µM; top dose inferred
Description: as §1

PF-562271 = compound: CN(c1ncccc1CNc1nc(Nc2ccc3c(c2)CC(=O)N3)ncc1C(F)(F)F)S(C)(=O)=O [PF-562271]; conditions: top dose 2.56 µM; top dose inferred
Description: as §1

Afatinib = compound: CN(C)C/C=C/C(=O)Nc1cc2c(Nc3ccc(F)c(Cl)c3)ncnc2cc1O[C@H]1CCOC1 [Afatinib]
Description: as §1

[1] = top dose 10 µM, screen: GDSC drug entry 1377, top dose inferred
[2] = top dose 0.5 µM, screen: GDSC drug entry 1032

Cell Line	AUC (SNX-2112)	pIC50 (SNX-2112)	AUC (XMD13-2)	pIC50 (XMD13-2)	AUC (PF-562271)	pIC50 (PF-562271)	AUC (Afatinib; [1])	pIC50 (Afatinib; [1])	AUC (Afatinib; [2])	pIC50 (Afatinib; [2])
LC-2-ad (lung adenocarcinoma, adherent)	0.548	6.66	0.84	5.13	0.854	5.68	0.964	< 5.00		
SCC-15 (head and neck, adherent)	0.658	6.29	0.943	< 4.99	0.857	< 5.59	0.345	6.70		
HEL (acute myeloid leukaemia, semi-adherent)	0.36	7.15	0.875	5.14	0.964	< 5.59	0.984	< 5.00		
A427 (non-small cell lung carcinoma, adherent)	0.836	5.76	0.981	< 4.99	0.931	< 5.59	0.985	< 5.00	0.985	< 6.30
NCI-H1299 (large cell lung carcinoma, adherent)	0.815	5.74	0.93	< 4.99	0.924	< 5.59	0.861	< 5.00		
NCI-H661 (large cell lung carcinoma, adherent)	0.795	5.83	0.895	< 4.99	0.944	< 5.59	0.888	< 5.00	0.874	< 6.30
BT-20 (breast, adherent)	0.884	< 5.59	0.938	< 4.99	0.931	< 5.59	0.899	< 5.00	0.871	< 6.30
RS4-11 (leukaemia, suspension)	0.179	7.71	0.664	5.76	0.892	< 5.59	0.984	< 5.00		
PCI-38 (head and neck, adherent)	0.573	6.60	0.932	< 4.99	0.906	< 5.59	0.923	< 5.00		
Calu-3 (lung adenocarcinoma, adherent)	0.819	5.71	0.979	< 4.99	0.883	< 5.59				
HPAC (pancreas, adherent)	0.492	6.82	0.91	< 4.99	0.903	< 5.59				
SW900 (lung squamous cell carcinoma, adherent)	0.908	< 5.59	0.982	< 4.99	0.95	< 5.59				
ECC12 (stomach, suspension)					0.907	< 5.59				
